{"source": "PubChem BioAssay AID686979", "about": "(National Center for Advancing Translational Sciences (NCATS), 2013)", "note": "Values joined by “and” are separate entries in the source; they are usually repeats but may differ in a detail not shown here. Equal values may be shown once. In all, about 420,000 compounds went through this assay and about 50,000 (12%) were called active. Inconclusive results, whose numbers are uncertain, are shown with a selection of clear calls. The call rests on the fitted dose curve; in most records, active means well fitted inhibition curve with a large enough effect; inconclusive means small, poorly fitted or top-dose-only effect; inactive means flat fitted curve, though single readings scatter. Potencies of inconclusive entries are left out as doubtful fits. The source holds several records for some structures; these can differ, active in one and inactive in another. On the % scale 0 is the no-effect control and ±100 the full control effect; potency means the concentration at half of the fitted maximal effect; tags describe the fitted curve by direction and shape.", "data": [{"assay": "qHTS for Inhibitors of human tyrosyl-DNA phosphodiesterase 1 (TDP1): qHTS in cells in presence of CPT; further: nearly all actives have a fitted effect of over 55% in size", "details": "chicken DT40 Tdp1-/-;hTDP1 cells + 20 nM CPT, ATP luminescence, 48 h; activity change, negative = growth inhibition: at 46.2 µM (top of the series) unless noted", "summary_of_the_method": "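Cell growth measured by CellTiter-Glo luminescence after a minimum 48 h, 37 C compound exposure with 20 nM CPT in Tdp1-knockout DT40 cells stably expressing hTDP1, seeded 400/well; qHTS titration format.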", "values": [{"smiles": "CCCC1=[N+](CC(=O)c2ccccc2)CCn2c(C)ccc21", "Potency": "active: 2.91 µM"}, {"smiles": "Cc1ccc(NS(=O)(=O)c2cc3c4c(cccc4c2)C(=O)NC3=O)cc1C", "Potency": "active: 6.51 µM"}, {"smiles": "COc1cc(C(=O)OCC(=O)N2CCN(C(C)=O)CC2)ccc1OCC(C)C", "activity change, negative = growth inhibition": "inactive: 8.39%"}, {"smiles": "Cc1[nH]n(C2=NCCS2)c(=O)c1N=Nc1ccccc1", "Potency": "inconclusive [inhibitor, single point]"}, {"smiles": "Cc1cccnc1NC(=O)c1ccc([N+](=O)[O-])o1", "Potency": "inconclusive [inhibitor, single point]"}, {"smiles": "CC(C)(O[C@@H]1O[C@H](CO)[C@@H](O)[C@H](O)[C@H]1O)[C@@H]1CC=C(C(=O)O)CC1", "activity change, negative = growth inhibition": "inactive: 11.8%"}, {"smiles": "CCOc1ccc(C=NNC(=O)c2ccc(-n3cnnn3)cc2)cc1", "activity change, negative = growth inhibition": "inactive: -1.05%"}, {"smiles": "C=CCN(c1ccccc1)S(=O)(=O)c1cccc(C(=O)NCC(c2ccccc2OC)N2CCCC2)c1", "note": "(configuration not stated)", "Potency": "active: 18.4 µM"}, {"smiles": "COc1cc2c(cc1OC)C(C)N(C(=O)c1c(C)noc1C)CC2", "note": "(configuration not stated)", "Potency": "inconclusive [inhibitor, single point]"}, {"smiles": "COCCN(C(=O)COC(=O)COc1ccc2c(c1)CCC2)c1c(N)n(Cc2ccccc2)c(=O)[nH]c1=O", "activity change, negative = growth inhibition": "inactive: 2.71%"}, {"smiles": "O=C(COC(=O)c1ccccc1)Nc1cccc(S(=O)(=O)N2CCOCC2)c1", "activity change, negative = growth inhibition": "inactive: -17.4%"}, {"smiles": "Cc1ccc(COc2cccc(/C=N/NC(=O)c3nnn(-c4nonc4N)c3C)c2)cc1", "Potency": "inconclusive [inhibitor, single point]"}, {"smiles": "O=c1[nH]c(=S)[nH]c2scc(-c3ccc(Br)cc3)c12", "activity change, negative = growth inhibition": "inactive: 6.88%"}, {"smiles": "CCC1CN(C(=O)Nc2cccc(C)c2)c2cc(C)ccc2O1", "note": "(configuration not stated)", "activity change, negative = growth inhibition": "inconclusive: -30.7% [inhibitor]"}, {"smiles": "COC(=O)C1C(=O)NCC1c1ccc(OC)cc1", "note": "(configuration not stated)", "activity change, negative = growth inhibition": "inactive: -2.03%"}, {"smiles": "COc1cc(-c2oc3cc(O)ccc3c(=O)c2O)ccc1O", "Potency": "active: 20.6 µM"}, {"smiles": "O=C(C1=C(O)C(=O)N(c2ncccn2)C1c1ccc(F)cc1)c1ccco1", "note": "(configuration not stated)", "activity change, negative = growth inhibition": "inactive: 5.12%"}, {"smiles": "CC(C)CN(C(=O)COC(=O)Cc1c[nH]c2ccccc12)C1CCS(=O)(=O)C1", "note": "(configuration not stated)", "Potency": "inconclusive [inhibitor, partial curve]"}, {"smiles": "Cc1cc(C)cc(NC(=O)C(OC(=O)c2cc[n+]([O-])cc2)c2ccccc2)c1", "note": "(configuration not stated)", "Potency": "inconclusive [inhibitor, single point]"}, {"smiles": "CCC(NC(=O)c1cc(COc2ccc(Cl)cc2OC)on1)c1ccncc1", "note": "(configuration not stated)", "Potency": "inconclusive [inhibitor, single point]"}, {"smiles": "Cc1ccc(C)c(NC(=O)CSc2nnc(Cc3cccn3C)n2-c2ccc(F)cc2)c1", "Potency": "inconclusive [inhibitor, full curve, poor fit]"}, {"smiles": "O=C(Cc1ccc(Cl)cc1)Nc1ncc([N+](=O)[O-])s1", "activity change, negative = growth inhibition": "inactive: 2.5%"}, {"smiles": "O=C(C[C@@H]1C/C=C\\CCC(=O)OC[C@@H]2CCCN2C1=O)N[C@@H](CO)Cc1ccccc1", "activity change, negative = growth inhibition": "inactive: -9.84%"}, {"smiles": "COc1ccc(C(CNC(=O)COc2cc(C)cc(C)c2)N2CCCCC2)cc1", "note": "(configuration not stated)", "Potency": "active: 23.1 µM"}, {"smiles": "O=C(CCc1ccccc1)Nc1nc2c(F)cc(F)cc2s1", "Potency": "inconclusive [inhibitor, single point]"}, {"smiles": "O=C(c1ccc2c(c1)OCCO2)N1CCN(c2ccc(C(F)(F)F)cn2)CC1", "Potency": "inconclusive [inhibitor, single point]"}, {"smiles": "Cc1ccc(NC(=O)Cn2c(=O)n(CC3CCC(C(=O)NC(C)C)CC3)c(=O)c3sccc32)cc1", "note": "(configuration not stated)", "Potency": "inconclusive [inhibitor, single point]"}, {"smiles": "CCOc1ccc(C2CC(=O)NC(SCC(=O)OC)=C2C#N)cc1", "note": "(configuration not stated)", "Potency": "inconclusive [inhibitor, partial curve]"}, {"smiles": "Nc1nc(-c2ccc(Cl)cc2)nn1C(=O)c1ccco1", "activity change, negative = growth inhibition": "inactive: -13%"}, {"smiles": "CCNC(=O)c1ccc(CSc2nc3ccccc3s2)cc1", "Potency": "inconclusive [inhibitor, single point]"}, {"smiles": "COc1ccc(NC(=O)c2ccccc2N(Cc2ccccc2)S(C)(=O)=O)cc1", "Potency": "inconclusive [inhibitor, single point]"}, {"smiles": "CC(=O)Nc1ccc(S(=O)(=O)NCc2ccc3[nH]c(C)cc3c2)cc1", "activity change, negative = growth inhibition": "inconclusive: -31.8% [inhibitor]"}, {"smiles": "Cc1cnc(CNc2ccnc(-c3ccoc3)n2)cn1", "activity change, negative = growth inhibition": "inactive: 11.4%"}, {"smiles": "CCOC(=O)C1CCN(C(=O)c2ccc3c(c2)NC(=O)/C(=C/c2ccccc2)S3)CC1", "Potency": "inconclusive [inhibitor, single point]"}, {"smiles": "CCCc1nc2c(c(=O)c3ccccc3n2C)c(=O)n1-c1cc(C)cc(C)c1", "Potency": "inconclusive [inhibitor, single point]"}, {"smiles": "C/C(=N\\OCC(=O)Nn1c(=O)[nH]c2ccccc2c1=O)c1ccccc1", "activity change, negative = growth inhibition": "inactive: -5.54%"}, {"smiles": "FC(F)(F)c1ccccc1Cc1c(-c2cccc(Br)c2)nc2c3ccccc3ccn12", "activity change, negative = growth inhibition": "inactive: -16.1%"}, {"smiles": "COC(=O)Nc1snnc1C", "activity change, negative = growth inhibition": "inactive: -0.0522%"}, {"smiles": "O=C(C[C@@H]1CC[C@@H]2[C@H](COC[C@@H](O)CN2Cc2cc(F)ccc2F)O1)NCc1ccc(F)cc1", "Potency": "inconclusive [inhibitor, single point]"}, {"smiles": "O=C(Nc1ccccc1C(F)(F)F)C1CC(=O)N(c2ccccc2F)C1", "note": "(configuration not stated)", "activity change, negative = growth inhibition": "inactive: -14.4%"}, {"smiles": "CN(Cc1ccccc1)C(=S)NC(=O)c1ccccc1", "Potency": "inconclusive [inhibitor, single point]"}, {"smiles": "Cc1ccc(N2CC(C(=O)NCCS(=O)(=O)N3CCN(c4ccccc4F)CC3)CC2=O)cc1", "note": "(configuration not stated)", "Potency": "active: 14.6 µM"}, {"smiles": "COc1ccc(/C=C/C(=O)O)cc1S(=O)(=O)Nc1ccc2c(c1)OCO2", "activity change, negative = growth inhibition": "inactive: -2.43%"}, {"smiles": "CC(C(=O)Nc1ccc(Cl)cc1)c1ncc(C(F)(F)F)cc1Cl", "note": "(configuration not stated)", "Potency": "inconclusive [inhibitor, partial curve, poor fit]"}, {"smiles": "CCOc1ccc(/C=C/C(=O)OCC(=O)NCCc2ccc(OCC)c(OCC)c2)cc1OC", "Potency": "inconclusive [inhibitor, single point]"}, {"smiles": "Cc1ccc(NC(=O)CSc2nc3ccc(Br)cc3[nH]2)c(C)c1", "Potency": "inconclusive [inhibitor, single point]"}, {"smiles": "O=C(COc1ccc(F)cc1)Nc1nnc(S(=O)(=O)N2CCc3ccccc32)s1", "Potency": "inconclusive [inhibitor, single point]"}, {"smiles": "Oc1ccc(C[C@H]2CNC(=S)N2CC2CCCN2C[C@H](Cc2ccc(O)cc2)N2C[C@H](Cc3ccc(O)cc3)N(CC3CCCCCC3)C2=S)cc1", "note": "(some centres not stated)", "Potency": "active: 23.1 µM"}, {"smiles": "O=[N+]([O-])c1cc2no[n+]([O-])c2cc1N1CCCCC1", "Potency": "active: 0.58 µM"}, {"smiles": "CCOc1ccc(N(Cc2ccccc2)C(=O)c2nc(SCC)ncc2Cl)cc1", "Potency": "active: 29.1 µM"}, {"smiles": "Cc1cccc(NC(=O)CSc2nc3ccccc3nc2N2CCC(C)CC2)c1", "Potency": "active: 20.6 µM"}, {"smiles": "Cc1nc2c3ccccc3nc(NNC(=O)CCC(=O)N3CCN(c4cccc(Cl)c4)CC3)n2n1", "Potency": "inconclusive [inhibitor, single point]"}, {"smiles": "CCCCCCn1c2c(c(=N)c3c1CCC3)CCC2", "Potency": "active: 0.411 µM"}, {"smiles": "O=C(CN1C(=O)NC2(CCCC2)C1=O)OCc1c(F)cccc1Cl", "activity change, negative = growth inhibition": "inactive: -11.3%"}, {"smiles": "CC1CCN(C(=O)CSc2c3c(nc4ccc(Cl)cc24)CCCC3)CC1", "Potency": "active: 20.6 µM"}, {"smiles": "CCN(CC(O)Cn1c2ccccc2c2ccccc21)S(=O)(=O)c1ccc(F)cc1", "note": "(configuration not stated)", "Potency": "inconclusive [inhibitor, single point]"}, {"smiles": "O=C(COc1ccc(Cl)cc1Cl)NCCC1=CCCCC1", "Potency": "inconclusive [inhibitor, single point]"}, {"smiles": "CN(C)CCN(C(=O)c1ccco1)c1nc2c(F)cc(F)cc2s1", "Potency": "inconclusive [inhibitor, single point]"}, {"smiles": "COc1ccc(OC)c(/C=C/C(=O)N2C(=O)c3cccc(N)c3C2=O)c1", "Potency": "active: 4.61 µM"}, {"smiles": "C=C1c2nc3ccccc3n2C=C(c2ccc(C)cc2)N1c1ccccc1", "Potency": "active: 8.2 µM"}, {"smiles": "Cc1cc2nc(N3CCN(C(=O)c4ccco4)CC3)sc2cc1C", "Potency": "inconclusive [inhibitor, partial curve, poor fit]"}, {"smiles": "COC(=O)N/N=C/c1c(C)c(C(=O)c2ccc(F)cc2)n2ccccc12", "Potency": "inconclusive [inhibitor, single point]"}, {"smiles": "CN(C1CCCCC1)S(=O)(=O)c1cccc2nsnc12", "Potency": "inconclusive [inhibitor, single point]"}, {"smiles": "CCOC(=O)c1ccc(NC(=O)CNC(=O)C23CC4CC(CC(C4)C2)C3)cc1", "Potency": "inconclusive [inhibitor, single point]"}, {"smiles": "COc1ccc(-c2cccc(C3CC=CC4C3C(=O)N(Cc3ccccc3)C4c3ccc(OC)c(Cl)c3)c2)cc1", "note": "(configuration not stated)", "Potency": "active: 20.6 µM"}, {"smiles": "O=C(NNc1cccc(Cl)n1)Nc1ccccc1", "activity change, negative = growth inhibition": "inactive: 0.687%"}, {"smiles": "CCOc1ncccc1C(=O)OCC(=O)Nc1ccc(S(=O)(=O)N2CCCC2)cc1", "activity change, negative = growth inhibition": "inactive: 1.1%"}, {"smiles": "COc1cccc2c1C(=O)c1c(O)c3c(c(O)c1C2=O)C[C@@](O)(C(=O)CO)C[C@@H]3O[C@H]1C[C@H](N)[C@H](O)[C@H](C)O1", "Potency": "active: 84.1 nM and active: 206 nM"}, {"smiles": "O=C1C=C(c2ccc(Oc3ccccc3)cc2)C[C@@H](c2ccc(F)cc2)C1", "Potency": "active: 18.4 µM"}, {"smiles": "Cn1cc(C(=O)N/N=C/C2=C(N3CCOCC3)C(=C\\c3ccccc3)/CC2)ccc1=O", "Potency": "inconclusive [inhibitor, single point]"}, {"smiles": "CC(C)(C)c1ccc(C(=O)N2CCN(CCNC(=O)C(=O)NCc3ccccc3)CC2)cc1", "Potency": "inconclusive [inhibitor, single point]"}, {"smiles": "COc1ccc(CN2C(=O)C(CC(=O)NC3CCCC3)CC(C(=O)N(C(C)C)C(C)C)=C2C)cc1", "note": "(configuration not stated)", "Potency": "inconclusive [inhibitor, single point]"}]}]}
